This note sets out measurements from PubChem BioAssay AID1240 (Sanford-Burnham Center for Chemical Genomics, 2008).

About 800 (1.6%) of roughly 50,000 compounds showed an effect of 50% or more. The list shows a part of the results.

The assay has as its target Bcl-2-like protein 10 (Homo sapiens) (UniProt Q9HD36). In words: TR3 peptide-Bcl-B binding displacers, biochemical primary FP assay, phenotype converters (AID 1240).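 Further: 0% = Bcl-B with tracer peptide and DMSO and 100% = tracer peptide lacking Bcl-B.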 To be noted: GST-Bcl-B / FITC-TR3 peptide fluorescence polarization; stronger effect = higher value; compound at 3.75 mg/L. For orientation: Fluorescence polarisation rises when a labelled molecule tumbles more slowly, as on binding a larger partner.
UniProt Q9HD36, sequence (Q9HD36 whole entry, looked up): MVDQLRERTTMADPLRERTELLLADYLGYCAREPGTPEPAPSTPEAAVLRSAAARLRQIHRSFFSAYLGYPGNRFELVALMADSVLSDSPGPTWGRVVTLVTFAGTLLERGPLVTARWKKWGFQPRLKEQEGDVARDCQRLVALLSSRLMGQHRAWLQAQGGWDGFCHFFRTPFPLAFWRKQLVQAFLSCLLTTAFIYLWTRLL
Turning to `N#Cc1c(N)nc(SCC(=O)c2ccc(O)c(O)c2)c(C#N)c1-c1ccc(O)cc1`, the displacement is -21.6%. For `CCOc1cc(/C=C(/C#N)C(=O)Nc2cccc(Br)c2)cc(Cl)c1OCC(=O)O`, the displacement is 2.7%.

Take `CCn1c2ccccc2c2nnc(SC)nc21`: the displacement came out at 10.3%.

With `Cc1ccc(CCNc2ccc3ccccc3c2)cn1`, the displacement was determined as 10.5%. As to `O=C(Nc1ncc(Cc2ccc(Cl)c(Cl)c2)s1)c1ccccc1Cl`, the displacement is -0.2%. Take `O=C1CC(N2CCN(c3ccc(Cl)cc3)CC2)C(=O)N1c1cc(Cl)cc(Cl)c1` (stereo not given): the displacement amounted to 5.4%.

`O=[N+]([O-])c1ccc(Cl)c(/C=N/Nc2nc3ccccc3s2)c1`: the displacement was 2.4%. The result for `CC1=NN(c2cccc(F)c2)C(=O)/C1=C\c1ccc(N(C)C)cc1` reads 2.9%; that for `Cc1cccc(N2C(=O)/C(=C/c3cccc(F)c3)SC2=S)c1C`, -1.9%; that for `O=C1/C(=C/c2ccccc2)SC(=S)N1/N=C/c1ccccc1`, 21.2%. For `C=CCSc1[nH]c(=O)c(C(=O)OCC)cc1C#N`, the displacement was 34.8%. Regarding `CC1(C)CC(=O)C=C(/C=C/c2ccc(N3N=N3)cc2)C1`, the displacement was -4.1%. On to `CCOC(=O)/C(C#N)=C\c1cn(CCC#N)nc1-c1ccc(C)o1`, for which the displacement was -1.3%. Consider `O=C1/C(=C/c2cccc([N+](=O)[O-])c2)SC(=S)N1C1CCS(=O)(=O)C1` (stereo not given), for which the displacement amounted to 2.2%.

For the compound `O=C(N/C(=C/c1ccc(Cl)cc1)C(=O)N1CCCC1)c1ccccc1`, the displacement was -6.6%. With `COc1ccc(OC)c(/C=c2\sc3nc4c(Br)c(C)c(C)cc4n3c2=O)c1`, the displacement turned out to be 19.8%. For the compound `COc1ccc(NC(=S)NC(=O)COc2ccc(Cl)cc2)cc1`, the displacement was found to be 12.2%. Consider `Clc1ccc(CN2CCN(Cc3ccncc3)CC2)cc1`, for which the displacement is -4.9%. On to `O=C(NC(=S)Nc1ccc([N+](=O)[O-])cc1O)C12CC3CC(CC(C3)C1)C2`, for which the displacement came to 6.1%. On to `OCc1cccc(N=Cc2cccc(Cl)c2Cl)c1`, for which the displacement is -2.8%. Next, `COc1ccc(OC)c(NC(=O)c2ccccc2[N+](=O)[O-])c1`: 8.3%; `COc1ccc(Br)cc1C(=O)Nc1cc(C(F)(F)F)cc(C(F)(F)F)c1`: 1.7%. With `CCOC(=O)c1cnn(-c2ncnc3sc(CC)cc23)c1N`, the displacement was -7.3%. As to `COc1ccc(C=O)c2c(OC)cccc12`, the displacement is 11.9%.

Turning to `N/C(Cc1ccc([N+](=O)[O-])cc1)=N\OC(=O)c1ccc(Br)cc1`, the displacement amounted to 6.5%. For the compound `C=CCNC(=O)C(=O)NCCCOC(C)C`, the displacement stood at 2.9%. The result for `Cc1c(NC(=O)Nc2cc(F)c(F)cc2Cl)c(=O)n(-c2ccccc2)n1C` reads 4.7%. Next, `Cc1c([N+](=O)[O-])c([N+](=O)[O-])nn1CC(=O)Nc1sc2c(c1C#N)CCCC2`: 2.3%.

As for `O=C(/C=C/c1ccccc1)Nc1ccc(I)cc1Cl`, the displacement turned out to be 9.5%.

On to `CC(=O)Nc1c(C)ccc2nsnc12`, for which the displacement was determined as 17.6%. Regarding `O=S(=O)(NCCOc1ccc(Cl)cc1)c1ccc2ccccc2c1`, the displacement is -4.5%. The result for `O=C(Nc1ccc(S(=O)(=O)NC(=O)C2CCCCC2)cc1)c1cccc(Br)c1` reads 7.8%. In the case of `Cc1ccc(-c2nc3ncccc3o2)cc1NC(=O)COc1cc(C)c(Cl)c(C)c1`, the displacement was found to be 11%. The result for `Cc1cccc(C)c1OCC(O)Cn1c2ccccc2c2ccccc21` (stereo not given) reads 12%; that for `Cc1cc(C=C2C(=O)NC(=S)NC2=O)c(-c2ccccc2)n1-c1ccccc1`, 162%. Consider `O=C(O)c1ccccc1N(Cc1ccccc1)S(=O)(=O)c1ccccc1`, for which the displacement was found to be 4.6%.

With `CC(C)c1ccc(N2C(=O)NC(=O)/C(=C/c3ccc(Br)o3)C2=O)cc1`, the displacement is -15.8%. Regarding `O=C(/C=C/c1ccccc1Cl)Nc1cccc(F)c1`, the displacement was 4.9%. In the case of `COc1cccc(C2=NN(C(=O)CCc3ccccc3)C(O)(C(F)(F)F)C2)c1` (stereo not given), the displacement is 0.8%. For `Oc1ccc(/C=N/Nc2cc(-c3ccccc3)nc(-c3ccccc3)n2)cc1`, the displacement was -1.2%. As to `C=C1c2cc(C)ccc2NC(=O)N1c1ccc(Cl)c(Cl)c1`, the displacement is -3.1%. Take `CCc1cccc(C)c1NC(=O)/C=C/c1ccc(F)cc1`: the displacement is 8.5%.

Consider `CCOC(=O)C(=O)N1CCN(c2cccc(Cl)c2)CC1`, for which the displacement was -1.6%. With `Cc1c(NC(=O)c2ccccc2[N+](=O)[O-])cccc1-c1nc2cc(Cl)ccc2o1`, the displacement turned out to be 34.1%. The result for `O=C(Nc1ccccc1)NC1CCCCC1` reads 6.9%; that for `O=C1c2cccc3cccc(c23)C(=O)N1Oc1ccc([N+](=O)[O-])cc1[N+](=O)[O-]`, 9.1%; that for `COc1cc(C2C3=C(Nc4c2c(=O)n(C)c(=O)n4C)c2ccccc2C3=O)cc(OC)c1OC` (stereo not given), 1.8%.

As for `NC(=O)NC(c1ccccc1)c1ccccc1Br` (stereo not given), the displacement came out at 2.2%. Next, `O=[N+]([O-])c1ccccc1-c1nc(-c2ccco2)c(-c2ccco2)[nH]1`: 31.6%; `COC(=O)c1c(NC(=O)CC2SCC(C(=O)OC)NC2=O)sc2c1CCCC2` (stereo not given): -3.8%; `COc1ccc(NC(=O)C(C)Oc2ccc(Cl)cc2Cl)c(OC)c1` (stereo not given): -4%. Take `COc1ccc(Br)cc1CNC(Cc1ccccc1)c1ccccc1` (stereo not given): the displacement was found to be 7.5%. In the case of `Cc1cc(C)c2nc(Nc3nc4ccccc4c(=O)[nH]3)nc(C)c2c1`, the displacement stood at 9.2%.

Regarding `CCCCOC(=O)c1ccc(NC(=O)CSc2nc3ccccc3s2)cc1`, the displacement was -17.7%. Turning to `Clc1ccc(/C=N\Nc2nc3ccccc3o2)c(Cl)c1`, the displacement came to 15.1%.

Take `Cc1ccc(NC(=O)C2CC(=O)N(c3ccc(Cl)cc3)C2)cc1` (stereo not given): the displacement came out at 9%.

Take `CC(C)COc1ccc(C(=O)Nc2ccc(-c3nc4ncccc4o3)cc2)cc1`: the displacement was 50.1%. As to `COc1cc(OC)c(OC)cc1CN1CCN(C(=O)c2ccccc2)CC1`, the displacement was -5.4%. Next, `Clc1ccccc1CN1CCN(Cc2c[nH]c3ccccc23)CC1`: -3%. As for `COc1ccc(C/C(N)=N/OC(=O)CCc2ccccc2)cc1`, the displacement was 4.3%. For the compound `Cc1ccc(OCCNC(C)(C)C)c(Cl)c1`, the displacement was -2.1%. For the compound `Cc1n[nH]c(C)c1Sc1ccccc1N=Cc1c2ccccc2cc2ccccc12`, the displacement is 13.2%. The result for `O=[N+]([O-])c1ccc(-c2nc(-c3ccccc3)c(-c3cccs3)[nH]2)cc1` reads 12.9%. Consider `O=C(NCCOCc1ccccc1)c1ccccc1I`, for which the displacement is -14.6%. With `COc1ccc(S(=O)(=O)N(CCc2ccccc2)CC(=O)Nc2cccc3ccccc23)cc1`, the displacement stood at 16%. Take `Clc1ccccc1CN1CCN(C2CCCC2)CC1`: the displacement was -1%. Consider `COc1ccc(N(Cc2ccc(C(=O)Nc3ccc(OC)c(OC)c3)cc2)S(=O)(=O)c2ccccc2)cc1`, for which the displacement was 15.7%. Consider `O=C(O)C1C2CCC(O2)C1C(=O)NCCC1=CCCCC1` (stereo not given), for which the displacement is -3.9%. Take `COc1ccc(C2CC(=O)C3=C(C2)Nc2ccccc2NC3c2coc3c(Cl)cc(Cl)cc3c2=O)cc1` (stereo not given): the displacement is -7.4%.

As to `COc1ccc(CC(=O)NC(Cc2ccc(OC)c(OC)c2)C(=O)O)cc1OC` (stereo not given), the displacement was -9.7%.
